According to ChEMBL document CHEMBL4888484, “Replenishing the malaria drug discovery pipeline: Screening and hit evaluation of the MMV Hit Generation Library 1 (HGL1) against asexual blood stage Plasmodium falciparum ,using a nano luciferase reporter read-out” (2022):
In all, about 150,000 compounds went through this assay and about 540 (0.36%) showed an effect of 50% or more. Some of the results follow.

System: Plasmodium falciparum
Assay: Primary screen in NF54 nanoGlo assay, in single point, at 2uM, 72h; a lower Z score goes with more inhibition
Type: functional, Erythrocyte
Conditions: timepoint 72 hour

SMILES	% Inhibition [%]	Z score
O=C(c1ccon1)N1CCC[C@H](c2cc(F)ccc2F)C1	2	-0.21
Cc1nc2sc(C(=O)Nc3ccc4ccccc4c3)c(N)c2c(C)c1C	32	-0.84
Cc1ccc(OCCNc2cc([C@H]3C[C@H](N)C3)nc(C3CC3)n2)cc1C	35	-2.3
CC(=O)N1CCC(C(=O)N(Cc2ccco2)c2ccc(C)cc2)CC1	-9	1.16
O=S(=O)(c1cccc2nsnc12)N1CC(n2cnnc2[C@@H]2CCCO2)C1	-13	1.68
CC1CCN(CN2C(=O)C3(OCC=CCO3)c3ccccc32)CC1	-10	1.17
COCCn1c(CNC(=O)c2ccccc2OC)nc2cccnc21	-3	0.39
O=C(Nc1cnccc1O)c1ccc(N2CC=CC2)cc1	-14	2.53
COc1cc(NC(=O)[C@@H]2CCCN2S(C)(=O)=O)cc(-n2cnnn2)c1	9	-1.31
CCOc1ccc(NC(=O)[C@H]2CCCN(C(=O)C(C)C)C2)cc1S(=O)(=O)N1CCOCC1	0	-0.01
CCO[C@@H](C)c1noc(COc2cccnc2C)n1	-4	0.58
CC(C)[C@H](O)C(=O)N1CCC(CNC(=O)CC2CC2)CC1	-7	1.12
O=C(c1ccc(Cl)c(Cl)c1)N1CCC(Cc2ccc3c(c2)OCO3)CC1	-10	1.36
COc1ccccc1[C@@H]1CNC(=O)c2nc(C3=CCCCC3)[nH]c2C1	0	-0.07
COc1c(C)cnc(CN2CCC(N(C)C(=O)N[C@@H](C)CC3CC3)CC2)c1C	-9	1.32
CCn1c(C)cc(C)c(C(=O)Nc2cc(-c3nnc(C)o3)ccc2OC)c1=O	-7	1.15
CCC(NC(C)c1ccc(C)s1)C(=O)N1CCOCC1 (configuration not stated)	-5	1
CC1CCN(CC2CCCN(C(=O)C3CCCc4ccccc43)C2)CC1 (configuration not stated)	-12	1.66
CC(=O)N1CCCN(C(=O)[C@@H]2COc3ccccc3O2)CC1	-7	0.91
CCc1cc(C(=O)N[C@@H](C)c2ccccc2)c2c(C3CC3)nn(Cc3ccccc3)c2n1	39	-5.23
C[C@H](CCC(=O)N1CCc2ccccc2C1)[C@H]1CC[C@H]2[C@@H]3[C@H](O)C[C@@H]4C[C@H](O)CC[C@]4(C)[C@H]3C[C@H](O)[C@]12C	-8	1.05

SMILES	% Inhibition [%]	Z score
CCc1nocc1CN(C)C(=O)c1onc2c1CCCC2	-11	1.55
CC(C)(Oc1ccc([C@H]2CC2(Cl)Cl)cc1)C(=O)Nc1nnc(C2CC2)s1	-1	0.12
CN(CCn1cc(C(=O)NCc2ccncc2)nn1)Cc1cc2c(cc1Cl)OCO2	1	-0.15
Cc1[nH]c2ccccc2c1C1C(CC(=O)N(Cc2ccccc2)C2(C(=O)Nc3ccc(N(C)C)cc3)CCCC2)C1(C)C (configuration not stated)	-32	3.72
Cc1nc2c(c(N3CCCC3)n1)CN(C(=O)Nc1cccc3ccccc13)CC2	-2	0.22
Cn1c(CN2CCN(C(=O)C(C)(C)C)CC2(C)C)nnc1C1CC1	-8	1.36
Cc1ccc(N(C)S(=O)(=O)c2ccc(-c3ccc(=O)[nH]n3)o2)cc1	-6	0.6
CC(C)(C)c1ncc(C(=O)N2CCC[C@@H]2C(=O)O)s1	2	-0.25
O=C(NCC#C[C@@H]1CCCCO1)c1cccnc1C(F)F	2	-0.25
O=C(c1ccc2ccccc2n1)N1CCN(S(=O)(=O)c2ccccc2)CC1	-3	0.36
Cc1ccc(CC(=O)N2CCC3(CCN(C)CC3)C2)cc1	-7	0.88
CC[C@@H](CO)NC(=O)NC1CCCC(OC)C1 (some centres not stated)	-9	0.9
c1csc(-c2cc(CN3CCOC[C@H]3c3nc[nH]n3)no2)c1	1	-0.11
Cc1cnn(C)c1NC(=O)N(C)Cc1ncc(Br)cn1	0	-0.04
Cc1nn(C)c(C)c1CNC(=O)c1ccc(-c2nc(CN3CCc4ccccc43)c(C)o2)cc1	-2	0.35
Cc1ccc(S(=O)(=O)Cc2nc(-c3ccc(C(=O)NCc4ccc(C)o4)cc3)oc2C)cc1	34	-4.92
OC[C@H]1CCCN(C2CCN(Cc3nc(-c4cccs4)no3)CC2)C1	3	-0.39
CCN(CC)Cc1nc(C2(NS(=O)(=O)N(C)C)CCCC2)no1	0	-0.08
O=C(NCCCNC(=O)C1CCCC1)C1CCCC1	7	-0.82
O=C(Nc1cccc2c1CCCC2)c1cnccn1	12	-1.36
